# Measured values taken from the supplement of paper PMC12217912.
# The other results are listed elsewhere or left out. Sequences were assembled here from the parent chain. Values near 0.05 are background.
# B1: TEV protease; numbered along this chain (parent)
# chain: MGESLFKGPRDYNPISSSICHLTNESDGHTTSLYGIGFGPFIITNKHLFRRNNGTLVVQSLHGVFKVKDTTTLQQHLVDGRDMIIIRMPKDFPPFPQKLKFREPQREERICLVTTNFQTKSMSSMVSDTSCTFPSGDGIFWKHWIQTKDGQCGSPLVSTRDGFIVGIHSASNFTNTNNYFTSVPKNFMELLTNQEAQQWVSGWRLNADSVLWGGHKVFMVKPEEPFQPVKEATQL
# Variants of: B1
# Test: raw area under fraction-flipped curve 0-4 h after induction (AUC4h, not background-subtracted), DNA-recorder readout of cleavage of the substrate (dimensionless); higher = more cleavage of the substrate by the protease variant
# Conditions: temperature: 34 °C; time window: 0-4 h after rhamnose induction
# Experimental: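 In vivo DNA recorder in E. coli TOP10(DE3) ΔrhaA at 34 °C. Each TEVp single-site mutant (parent TEVp 0) is paired with a single-site variant of the 7-mer TEVs (canonical ENLYFQ|S). The substrate sits between flexible linkers in a Bxb1-sfGFP-TEVs-SsrA fusion, so cleavage stabilises Bxb1 and speeds flipping of a recombination array, read by NGS. The value is the raw area under the fraction-flipped curve over 0-4 h after rhamnose induction (AUC4h), with ≥20 reads per time point. It is not background-subtracted; inactive controls average about 0.047.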
# 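Further: Bxb1 expression induced with 0.2% (w/v) L-rhamnose at OD600 near 0.5, cultures sampled hourly, flipped fraction per protease–substrate barcode pair counted by paired-end Illumina sequencing.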
Variant,area with substrate ECLYFQS,area with substrate EDLYFQS,area with substrate EELYFQS,area with substrate EGLYFQS,area with substrate EHLYFQS,area with substrate EKLYFQS,area with substrate ELLYFQS,area with substrate EMLYFQS,area with substrate EPLYFQS,area with substrate EQLYFQS,area with substrate ERLYFQS,area with substrate ESLYFQS,area with substrate EWLYFQS,area with substrate EILYFQS,area with substrate EVLYFQS,area with substrate ETLYFQS,area with substrate EYLYFQS,area with substrate EFLYFQS
MGESLFKGPRDYNPISSSICHLTNESDGHTTILYGIGFGPFIITNKHLFRRNNGTLVVQSLHGVFKVKDTTTLQQHLVDGRDMIIIRMPKDFPPFPQKLKFREPQREERICLVTTNFQTKSMSSMVSDTSCTFPSGDGIFWKHWIQTKDGQCGSPLVSTRDGFIVGIHSASNFTNTNNYFTSVPKNFMELLTNQEAQQWVSGWRLNADSVLWGGHKVFMVKPEEPFQPVKEATQL [S32I],0.0962,0.141,0.16,0.0514,0.13,0.121,0.0886,0.103,0.11,0.105,0.106,0.115,0.0987,–,–,–,–,–
MGESLFKGPRDYNPISSSICHLTNESDGHTTWLYGIGFGPFIITNKHLFRRNNGTLVVQSLHGVFKVKDTTTLQQHLVDGRDMIIIRMPKDFPPFPQKLKFREPQREERICLVTTNFQTKSMSSMVSDTSCTFPSGDGIFWKHWIQTKDGQCGSPLVSTRDGFIVGIHSASNFTNTNNYFTSVPKNFMELLTNQEAQQWVSGWRLNADSVLWGGHKVFMVKPEEPFQPVKEATQL [S32W],0.0902,–,0.131,–,0.112,0.125,0.0975,–,–,0.13,0.115,0.117,–,0.0981,0.109,–,–,–
MGESLFKGPRDYNPISSSICHLTNESDGHTTYLYGIGFGPFIITNKHLFRRNNGTLVVQSLHGVFKVKDTTTLQQHLVDGRDMIIIRMPKDFPPFPQKLKFREPQREERICLVTTNFQTKSMSSMVSDTSCTFPSGDGIFWKHWIQTKDGQCGSPLVSTRDGFIVGIHSASNFTNTNNYFTSVPKNFMELLTNQEAQQWVSGWRLNADSVLWGGHKVFMVKPEEPFQPVKEATQL [S32Y],0.107,0.132,0.0832,0.0956,0.102,0.0917,0.0958,0.102,0.122,0.0858,0.0671,0.0978,0.0871,0.0833,0.0883,0.12,0.114,–
MGESLFKGPRDYNPISSSICHLTNESDGHTTSLYGIGFGDFIITNKHLFRRNNGTLVVQSLHGVFKVKDTTTLQQHLVDGRDMIIIRMPKDFPPFPQKLKFREPQREERICLVTTNFQTKSMSSMVSDTSCTFPSGDGIFWKHWIQTKDGQCGSPLVSTRDGFIVGIHSASNFTNTNNYFTSVPKNFMELLTNQEAQQWVSGWRLNADSVLWGGHKVFMVKPEEPFQPVKEATQL [P40D],0.17,0.14,–,0.117,–,–,0.107,–,–,–,0.111,0.113,0.119,–,0.1,–,–,0.104
MGESLFKGPRDYNPISSSICHLTNESDGHTTSLYGIGFGFFIITNKHLFRRNNGTLVVQSLHGVFKVKDTTTLQQHLVDGRDMIIIRMPKDFPPFPQKLKFREPQREERICLVTTNFQTKSMSSMVSDTSCTFPSGDGIFWKHWIQTKDGQCGSPLVSTRDGFIVGIHSASNFTNTNNYFTSVPKNFMELLTNQEAQQWVSGWRLNADSVLWGGHKVFMVKPEEPFQPVKEATQL [P40F],0.0676,0.114,–,0.0699,0.0811,0.112,0.0876,0.0972,0.0928,0.102,0.0964,0.0859,–,0.103,0.0687,0.0978,0.131,–
MGESLFKGPRDYNPISSSICHLTNESDGHTTSLYGIGFGHFIITNKHLFRRNNGTLVVQSLHGVFKVKDTTTLQQHLVDGRDMIIIRMPKDFPPFPQKLKFREPQREERICLVTTNFQTKSMSSMVSDTSCTFPSGDGIFWKHWIQTKDGQCGSPLVSTRDGFIVGIHSASNFTNTNNYFTSVPKNFMELLTNQEAQQWVSGWRLNADSVLWGGHKVFMVKPEEPFQPVKEATQL [P40H],0.131,0.0826,0.0995,0.102,0.107,–,0.115,0.122,–,0.0987,0.0963,0.128,0.0934,0.0999,0.106,–,0.11,0.0888
MGESLFKGPRDYNPISSSICHLTNESDGHTTSLYGIGFGSFIITNKHLFRRNNGTLVVQSLHGVFKVKDTTTLQQHLVDGRDMIIIRMPKDFPPFPQKLKFREPQREERICLVTTNFQTKSMSSMVSDTSCTFPSGDGIFWKHWIQTKDGQCGSPLVSTRDGFIVGIHSASNFTNTNNYFTSVPKNFMELLTNQEAQQWVSGWRLNADSVLWGGHKVFMVKPEEPFQPVKEATQL [P40S],0.112,0.148,0.141,0.119,0.135,0.0986,0.211,0.128,0.151,0.102,0.0889,0.0987,0.0965,0.103,0.105,0.132,0.0979,0.103
MGESLFKGPRDYNPISSSICHLTNESDGHTTSLYGIGFGPFIITNKHGFRRNNGTLVVQSLHGVFKVKDTTTLQQHLVDGRDMIIIRMPKDFPPFPQKLKFREPQREERICLVTTNFQTKSMSSMVSDTSCTFPSGDGIFWKHWIQTKDGQCGSPLVSTRDGFIVGIHSASNFTNTNNYFTSVPKNFMELLTNQEAQQWVSGWRLNADSVLWGGHKVFMVKPEEPFQPVKEATQL [L48G],0.0753,0.078,–,0.0765,0.0715,0.0694,0.0657,–,0.0741,0.0717,0.0875,0.0634,0.0699,0.051,0.0693,–,0.0662,–
MGESLFKGPRDYNPISSSICHLTNESDGHTTSLYGIGFGPFIITNKHKFRRNNGTLVVQSLHGVFKVKDTTTLQQHLVDGRDMIIIRMPKDFPPFPQKLKFREPQREERICLVTTNFQTKSMSSMVSDTSCTFPSGDGIFWKHWIQTKDGQCGSPLVSTRDGFIVGIHSASNFTNTNNYFTSVPKNFMELLTNQEAQQWVSGWRLNADSVLWGGHKVFMVKPEEPFQPVKEATQL [L48K],0.0559,–,0.0639,0.0541,0.0781,0.0669,–,–,0.045,–,–,0.0616,0.0511,0.0789,0.0557,–,–,0.0665
MGESLFKGPRDYNPISSSICHLTNESDGHTTSLYGIGFGPFIITNKHRFRRNNGTLVVQSLHGVFKVKDTTTLQQHLVDGRDMIIIRMPKDFPPFPQKLKFREPQREERICLVTTNFQTKSMSSMVSDTSCTFPSGDGIFWKHWIQTKDGQCGSPLVSTRDGFIVGIHSASNFTNTNNYFTSVPKNFMELLTNQEAQQWVSGWRLNADSVLWGGHKVFMVKPEEPFQPVKEATQL [L48R],0.0531,0.0572,0.0419,0.0657,0.0671,0.0702,0.0842,–,0.0632,0.052,–,0.0541,0.0524,0.0646,0.0511,0.0779,–,0.0447
MGESLFKGPRDYNPISSSICHLTNESDGHTTSLYGIGFGPFIITNKHWFRRNNGTLVVQSLHGVFKVKDTTTLQQHLVDGRDMIIIRMPKDFPPFPQKLKFREPQREERICLVTTNFQTKSMSSMVSDTSCTFPSGDGIFWKHWIQTKDGQCGSPLVSTRDGFIVGIHSASNFTNTNNYFTSVPKNFMELLTNQEAQQWVSGWRLNADSVLWGGHKVFMVKPEEPFQPVKEATQL [L48W],0.0629,–,0.0751,0.111,0.0438,0.0576,–,–,0.0619,0.0525,0.0614,0.0621,0.0594,0.0722,0.069,0.0624,0.0596,0.0592
MGESLFKGPRDYNPISSSICHLTNESDGHTTSLYGIGFGPFIITNKHLFRRNNGTIVVQSLHGVFKVKDTTTLQQHLVDGRDMIIIRMPKDFPPFPQKLKFREPQREERICLVTTNFQTKSMSSMVSDTSCTFPSGDGIFWKHWIQTKDGQCGSPLVSTRDGFIVGIHSASNFTNTNNYFTSVPKNFMELLTNQEAQQWVSGWRLNADSVLWGGHKVFMVKPEEPFQPVKEATQL [L56I],0.115,0.135,–,–,–,–,0.132,0.0733,0.192,0.0955,–,0.106,0.0919,0.0871,0.0712,0.133,–,–
MGESLFKGPRDYNPISSSICHLTNESDGHTTSLYGIGFGPFIITNKHLFRRNNGTPVVQSLHGVFKVKDTTTLQQHLVDGRDMIIIRMPKDFPPFPQKLKFREPQREERICLVTTNFQTKSMSSMVSDTSCTFPSGDGIFWKHWIQTKDGQCGSPLVSTRDGFIVGIHSASNFTNTNNYFTSVPKNFMELLTNQEAQQWVSGWRLNADSVLWGGHKVFMVKPEEPFQPVKEATQL [L56P],0.0346,0.0496,0.0497,0.0275,–,–,–,–,0.0365,0.0477,0.0402,–,0.0526,0.0552,–,–,–,–
MGESLFKGPRDYNPISSSICHLTNESDGHTTSLYGIGFGPFIITNKHLFRRNNGTWVVQSLHGVFKVKDTTTLQQHLVDGRDMIIIRMPKDFPPFPQKLKFREPQREERICLVTTNFQTKSMSSMVSDTSCTFPSGDGIFWKHWIQTKDGQCGSPLVSTRDGFIVGIHSASNFTNTNNYFTSVPKNFMELLTNQEAQQWVSGWRLNADSVLWGGHKVFMVKPEEPFQPVKEATQL [L56W],0.0605,0.0787,0.0701,0.0641,0.0541,0.0593,0.0573,0.057,0.0702,0.0735,0.0644,0.0629,0.0927,0.0965,0.0581,0.0597,0.0557,0.0619
MGESLFKGPRDYNPISSSICHLTNESDGHTTSLYGIGFGPFIITNKHLFRRNNGTLVVQSLHGKFKVKDTTTLQQHLVDGRDMIIIRMPKDFPPFPQKLKFREPQREERICLVTTNFQTKSMSSMVSDTSCTFPSGDGIFWKHWIQTKDGQCGSPLVSTRDGFIVGIHSASNFTNTNNYFTSVPKNFMELLTNQEAQQWVSGWRLNADSVLWGGHKVFMVKPEEPFQPVKEATQL [V64K],0.105,0.118,–,0.0883,0.133,–,–,0.125,0.0736,0.159,–,0.105,0.0735,0.112,0.0983,–,0.122,–
MGESLFKGPRDYNPISSSICHLTNESDGHTTSLYGIGFGPFIITNKHLFRRNNGTLVVQSLHGLFKVKDTTTLQQHLVDGRDMIIIRMPKDFPPFPQKLKFREPQREERICLVTTNFQTKSMSSMVSDTSCTFPSGDGIFWKHWIQTKDGQCGSPLVSTRDGFIVGIHSASNFTNTNNYFTSVPKNFMELLTNQEAQQWVSGWRLNADSVLWGGHKVFMVKPEEPFQPVKEATQL [V64L],0.125,–,–,–,–,0.113,–,0.123,–,–,0.109,0.088,0.0979,–,0.113,–,–,–
MGESLFKGPRDYNPISSSICHLTNESDGHTTSLYGIGFGPFIITNKHLFRRNNGTLVVQSLHGPFKVKDTTTLQQHLVDGRDMIIIRMPKDFPPFPQKLKFREPQREERICLVTTNFQTKSMSSMVSDTSCTFPSGDGIFWKHWIQTKDGQCGSPLVSTRDGFIVGIHSASNFTNTNNYFTSVPKNFMELLTNQEAQQWVSGWRLNADSVLWGGHKVFMVKPEEPFQPVKEATQL [V64P],0.0877,–,–,–,0.0766,0.105,–,0.127,–,–,0.061,0.0699,0.0747,–,0.0373,–,0.138,0.108
MGESLFKGPRDYNPISSSICHLTNESDGHTTSLYGIGFGPFIITNKHLFRRNNGTLVVQSLHGVFKVKDTTALQQHLVDGRDMIIIRMPKDFPPFPQKLKFREPQREERICLVTTNFQTKSMSSMVSDTSCTFPSGDGIFWKHWIQTKDGQCGSPLVSTRDGFIVGIHSASNFTNTNNYFTSVPKNFMELLTNQEAQQWVSGWRLNADSVLWGGHKVFMVKPEEPFQPVKEATQL [T72A],0.0618,–,–,–,0.1,0.0904,0.0846,–,0.125,0.11,–,0.109,0.0979,0.108,–,–,–,–
